Whole data set: some 33,000 sequences, median “E-score (-0.5 to 0.5)” near -0.056, cut for the highest 2% near 0.38. The list shows a part of the results.
Target: Stb4 (UniProt P50104)
Assay: PBM E-score (8-mer binding enrichment) (E-score (-0.5 to 0.5)); higher = stronger / more preferred TF binding; most listed sequences are background and not binding sites
Conditions: protein concentration: 200 nM; construct: GST-DNA-binding domain
Experimental: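 Universal 'all 10-mer' protein binding microarrays (Agilent AMADID 015681) probed with GST-tagged S. cerevisiae TFs (full-length or DBD) made by in vitro transcription/translation (PURExpress), about 100-200 nM. Bound TF was detected with fluorescent anti-GST. Each ungapped 8-mer (which stands for itself and its reverse complement) is scored by the PBM enrichment score (E-score), a modified Wilcoxon-Mann-Whitney statistic from -0.5 to +0.5, computed with the Universal PBM Analysis Suite. Scale: above 0.35 generally sequence-specific binding.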

Point of comparison: TAACGGAA, “PBM E-score” value 0.318. Against it:
- CAAACCCG — lower, 0.219
- AGGGATTC — lower, -0.0369
- CAGCATCG — lower, -0.119
- CGCTGGCA — lower, -0.227
- CCATATGC — lower, -0.104
- CCCCATAA — lower, -0.0851
- CCTATTAG — lower, -0.145
- AAGCCCTG — lower, -0.271
- AATTTTGC — lower, 0.00035
- AATATGCG — lower, -0.0103
- GAAATGAC — lower, -0.0643
- GCAGGACC — lower, -0.156
- GTTTCCGA — higher, 0.466
- CCACTATA — lower, -0.0398
- GCCGGAGC — lower, 0.283
- CCCATTCG — lower, -0.0691
- AAACTAGT — lower, -0.114
- GATTCCGA — higher, 0.444
- ATGAGCGC — lower, 0.0167
- CGCTCTTC — lower, -0.0242
- AAAGATTA — lower, 0.0914
- GGACAGAA — lower, -0.00634
- ACTCGCCG — lower, 0.123
- CATCCCGC — lower, 0.122
- GTACACCA — lower, -0.121
- CAGACTCA — lower, -0.186
- AGCCGCGA — lower, 0.209
- ATACGAGG — lower, -0.0328
- CGTCGCGC — lower, 0.00783
- GGACGATA — lower, -0.0892
- CTTGCTGC — lower, -0.24
- CGTTCAAC — lower, -0.104
- GATGCAAC — lower, -0.12
- TTAAGGAA — lower, -0.0537
- ACCGTGAG — lower, -0.0243
- CTAGATCA — lower, -0.251
- AGGAAAGG — lower, -0.131
- ACACGAAG — lower, 0.00748
- CCTAACAG — lower, -0.0901
- TCGCCTAA — lower, -0.031
- CATGGCTA — lower, -0.0176
- GCTTATTA — lower, -0.132
- ACGTTATG — lower, -0.068
- AGCTCATC — lower, -0.0601
- AACTCGAA — lower, -0.149
- GACGGGCA — lower, -0.01
- CGCAGTAC — lower, -0.204
- AGCGCTTC — lower, -0.0479
- CAAAATGG — lower, 0.0214
- CCCGAACG — higher, 0.378
- ACCCGGGT — higher, 0.41
- CACTTGGG — lower, -0.144
- ACGGGACC — lower, 0.181
- CTCGAGGA — lower, -0.188
- ACATGGTG — lower, -0.225
- AAGAGCAT — lower, -0.138
- AGTATCAG — lower, -0.231
- ATGGCAAG — lower, -0.147
- AAATGTTC — lower, -0.013
- ATTCCGCA — lower, 0.169
- CTTTGAGA — lower, -0.107
- AACCCATG — lower, -0.123
- TGCCACAA — lower, -0.0292
- CAACATTC — lower, -0.0398
- CGTTACGC — lower, -0.0964
- CCCCCTTC — lower, -0.175
- CTAAAAGC — lower, -0.0283
- GCCAATAC — lower, -0.14
- ATAAGTGA — lower, -0.129
- AATCAGGA — lower, -0.142
- AGCTGCCC — lower, 0.087
- AGCGTAGA — lower, 0.0958
- ACAACGGA — lower, 0.282
- ATCACATG — lower, -0.05
- GACCCGCC — lower, 0.0652
- CTGATCCC — lower, -0.0865
- CTACATAG — lower, -0.128
- AGATGGCT — lower, -0.195
- AAGCTCAC — lower, -0.0192
- CCCCTCGG — higher, 0.332
- ATTCATTG — lower, -0.191
- GCTTGCGA — lower, -0.104
- ACCACGAC — lower, -0.309
- ACCGGCAA — lower, 0.229
- GACGACAC — lower, -0.0829
- CAGATGAA — lower, -0.189
- AACAGCCG — lower, 0.298
- ACAGCATA — lower, 0.0201
- AGTTTACC — lower, 0.109
- CCTAGGCC — lower, -0.104
- CAAAGGGG — lower, -0.122
- AGATTCAG — lower, -0.1
- ACTCTCCT — lower, -0.272
- AGCCAGCG — lower, -0.131
- CGGAGTGA — lower, 0.27
- ACTCTCTA — lower, -0.298
- AATGTCAG — lower, -0.0429
- CAAAGATC — lower, -0.136
- GCCGACGC — higher, 0.324
- CACAACTC — lower, -0.149
- ATGCATCA — lower, 0.0413
- AAACGCCC — lower, 0.0417
- GCATCTCA — lower, -0.222
- CAAACAAG — lower, 0.0864
- ATACAAGG — lower, 0.0637
- CTTTATCA — lower, -0.208
- GCAGCGCA — lower, -0.138
- ACTTAACA — lower, -0.128
- AGCTCACG — lower, -0.183
- ACAAAGCA — lower, -0.0564
- CGCTACAC — lower, -0.097
- ATACCTGC — lower, -0.115
- CGAGACAA — lower, 0.0106
- CCATTCAA — lower, -0.255
- AGCTAATG — lower, -0.307
- ATCGTAAT — lower, -0.0583
- CACTATAC — lower, -0.151
- GGAGACAC — lower, 0.0441
- AATGTGTA — lower, -0.189
- AGGGACGG — lower, 0.0135
- CGCCGCGC — lower, 0.119
- GAGTGAAC — lower, 0.00509
- TATCGCAA — lower, -0.178
- CAGAAGCC — lower, -0.0243
- ATCCTAAT — lower, -0.0888
- ACCCAGCA — lower, -0.00407
- ATCATCTA — lower, 0.00686
- CATTGGCG — lower, -0.115
- ATAGTGAC — lower, 0.00613
- CCTTGTTC — lower, 0.113
- CACCCAGA — lower, -0.138
- GCAGCGAA — lower, -0.0698
- AGGAACAG — lower, -0.243
- CTACAGAC — lower, -0.0516
- ATTCTAGG — lower, -0.24
- ATCAAATA — lower, -0.0732
- ATGTTTTC — lower, 0.118
- GATGTGCA — lower, -0.0587
- CAAGAACG — lower, -0.193
- ATGGTTGC — lower, -0.21
- ATGACGTA — lower, -0.125
- CGCTTCAC — lower, -0.0873
- GGGGAACA — lower, -0.00425
- ATACCCGA — higher, 0.476
- ACTCTTGC — lower, -0.119
- AGAGTAGG — lower, -0.108
- ATCTGAGG — lower, -0.0721
- CGACCCAA — lower, -0.147
- GAATTGTC — lower, -0.00523
- CTCCCGCC — lower, 0.182
- ACGTTCTC — lower, 0.0386
- AGCAGAGG — lower, -0.31
- GTGGTTTA — lower, 0.0136
- CAGAGCGA — lower, -0.0292
- TTATTCAA — lower, 0.0286
- AGGGGCGA — lower, -0.127
- AACCCTCG — lower, 0.144
- CCTCGCAA — lower, -0.151
- GCGCGCCA — lower, -0.0421
- ACATCTAA — lower, -0.0958
- AGGGTCCA — lower, -0.0617
- AGTCAAAT — lower, -0.264
- ATGATAGG — lower, -0.0605
- GCATACGC — lower, 0.0345
- AGCAGTAA — lower, -0.0503
- AGGAAACG — lower, -0.164
- TGAGGCAA — lower, -0.0958
- CCCGTAAC — lower, 0.225
- ACTCTATG — lower, -0.122
- ACGGTCAG — lower, -0.22
- CTCCGGAG — lower, 0.304
